Data as given in publication PMC11412900 (Molecular Psychiatry, 2024).

Tests used:
human 5-HT2AR [1] = molecular target: T1, human 5-HT2AR (Homo sapiens, UniProt P28223); settings: for 5-HT2AR calcium mobilization Emax ± SD: percentage of response to 5-HT 10^−4 M; for EC50: read-out: 5-HT2AR calcium mobilization EC50 ± SD, CHO/K1 h5-HT2AR
human 5-HT2AR [2] = molecular target: T1, human 5-HT2AR; test: cell-based; settings: CHO-K1, read-out: 5-HT2AR calcium mobilization Emax ± SD

T1 sequence (P28223 whole entry): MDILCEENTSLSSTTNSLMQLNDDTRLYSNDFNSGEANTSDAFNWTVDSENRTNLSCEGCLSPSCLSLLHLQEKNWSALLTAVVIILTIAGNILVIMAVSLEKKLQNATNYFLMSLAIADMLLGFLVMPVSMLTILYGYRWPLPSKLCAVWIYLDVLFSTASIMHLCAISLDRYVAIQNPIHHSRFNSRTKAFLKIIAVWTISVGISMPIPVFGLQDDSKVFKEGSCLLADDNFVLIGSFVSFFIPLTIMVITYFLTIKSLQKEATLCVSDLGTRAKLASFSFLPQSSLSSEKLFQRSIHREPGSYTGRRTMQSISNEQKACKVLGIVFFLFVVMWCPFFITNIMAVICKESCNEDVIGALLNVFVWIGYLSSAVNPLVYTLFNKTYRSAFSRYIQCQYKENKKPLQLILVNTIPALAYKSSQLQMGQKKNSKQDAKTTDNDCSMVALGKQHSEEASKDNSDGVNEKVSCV

SMILES | 5-HT2AR calcium mobilization Emax ± SD (human 5-HT2AR [1]) | EC50 (human 5-HT2AR [1]) | 5-HT2AR agonist type (human 5-HT2AR [1]) | Emax (human 5-HT2AR [2])
CCN(C)CCc1c[nH]c2ccc(OC)cc12 [5-MeO-MET] | 102 ± 5 %5-HT | 4.46 ± 0.06 nM | – | –
CCN(CC)CCc1c[nH]c2ccc(OC)cc12 [5-MeO-DET] | 102 ± 7 %5-HT | 17.1 ± 5.1 nM | – | –
C=CCN(C)CCc1c[nH]c2ccc(OC)cc12 [5-MeO-MALT] | 99 ± 9 %5-HT | 4.95 ± 0.47 nM | – | –
NCCc1ccc(O)c(O)c1 [dopamine, reference compound] | – | – | partial agonist | –
C=CCN(CC=C)CCc1c[nH]c2ccc(OC)cc12 [5-MeO-DALT] | 99 ± 2 %5-HT | 11.3 ± 3.3 nM | – | –
CCN(CCc1c[nH]c2ccc(OC)cc12)C(C)C [5-MeO-EIPT] | 103 ± 4 %5-HT | 23.6 ± 1.6 nM | – | –
COc1ccc2[nH]cc(CCN3CCCC3)c2c1 [5-MeO-pyr-T] | 92 ± 4 %5-HT | 13.5 ± 2.2 nM | – | –
COc1ccc2[nH]cc(CCN(C)C)c2c1 [5-MeO-DMT, 5-methoxy-N,N-dimethyltryptamine] | – | – | – | 100%
COc1ccc2[nH]cc(CCN(C(C)C)C(C)C)c2c1 [5-MeO-DIPT, 5-methoxy-N,N-diisopropyltryptamine] | – | – | – | 99%
COc1ccc2[nH]cc(CCNC(C)C)c2c1 [5-MeO-NIPT] | 91 ± 1 %5-HT | 13.2 ± 3.6 nM | – | –
COc1ccc2[nH]cc(CCN(C)C(C)C)c2c1 [5-MeO-MIPT] | 96 ± 1 %5-HT | 5.88 ± 2.39 nM | – | –
NCCc1c[nH]c2ccc(O)cc12 [5-HT, reference compound] | – | – | full agonist | –
